Experimental data published in patent US10064952B2, “Glycoengineered antibody drug conjugates” (Genzyme Corporation, priority 2014, dated 2018).

Tests used:
[1] = Far-UV CD thermo melting experiment; format: physicochemical; details: approximately 0.5 mg/mL in PBS, 1° C./min from 25-89° C.; FIG. 40
Experimental: The stability of the S298N/T299A/Y300S antibody mutant was monitored by a Far-UV CD thermo melting experiment in which the CD signal at 216 nm and 222 nm was monitored as increasing temperature lead to the unfolding of the antibody (denaturation).
Temperature was controlled by a thermoelectric peltier (Jasco model AWC100) and was increased at a rate of 1° C./min from 25-89° C. The CD spectra were collected on a Jasco 815 spectrophotometer at a protein concentration of approximately 0.5 mg/mL in PBS buffer in a quartz cuvette (Hellma, Inc) with a path length of 10 mm. The scanning speed was 50 nm/min and a data pitch of 0.5 nm. A bandwidth of 2.5 nm was used with a sensitivity setting of medium. The CD signal and HT voltage were collected from 210-260 nm with data intervals of 0.5 nm and at temperature intervals of 1° C. and four replicate scans were performed for each sample.

[2] = system: human PBMC; assay: T cell depletion/Cytokine Release assay in PBMC; format: cell-based
Experimental: Fc-engineered mutants were assessed through a PBMC proliferation assay and a cytokine release assay. In the PBMC proliferation assay, human PBMC were cultured with increasing concentrations of therapeutic antibody for 72 hours, ^3H-thymidine was added and cells were harvested 18 hours later. For the T cell depletion/Cytokine Release assay, human PBMC were cultured with increasing concentrations of therapeutic antibody and were analyzed daily for cell counts and viability (Vi-Cell, Beckman Coulter) out to day 7. Cell supernatants were also harvested, stored at −20° C. and analyzed on an 8-plex cytokine panel (Bio-Rad).
Normal donor PBMC were thawed and treated under the following conditions (all in media containing complement): Untreated; BMA031, moIgG2b 10 ug/ml; OKT3, moIgG2a 10 ug/ml; H66, huIgG1 deltaAB 10 ug/ml, 1 ug/ml and 0.1 ug/ml; H66, huIgG1 S298N/T299A/Y300S 10 ug/ml, 1 ug/ml and 0.1 ug/ml.
Cytokines were harvested at day 2 (D2) and day 4 (D4) for Bioplex Analysis (IL2, IL4, IL6, IL8, IL10, GM-CSF, IFNg, TNFa). Cells were stained at D4 for CD4, CD8, CD25 and abTCR expression.

B1: H66 S298N/T299A/Y300S: anti-αβTCR clone H66 huIgG1, S298N/T299A/Y300S heavy chain (SEQ ID NO 26) (antibody)
heavy: EVQLLQSGGGLVQPGGSLRLSCAASGYKFTSYVMHWVRQAPGKGLEWVGYINPYNDVTKYNEKFKGRFTLSRDNSKNTLYLQMNSLRAEDTAVYYCARGSYYDYDGFVYWGQGTLVTVSSASTKGPSVFPLAPSSKSTSGGTAALGCLVKDYFPEPVTVSWNSGALTSGVHTFPAVLQSSGLYSLSSVVTVPSSSLGTQTYICNVNHKPSNTKVDKKV[omitted - human IgG1 Fc with S298N T299A Y300S (EU numbers)]
light: EIVLTQSPATLSLSPGERATLSCSATSSVSYMHWYQQKPGQAPRRLIYDTSKLASGVPARFSGSGSGTSYTLTISSLEPEDFAVYYCQQWSSNPLTFGGGTKVEIKRTVAAPSVFIFPPSDEQLKSGTASVVCLLNNFYPREAKVQWKVDNALQSGNSQESVTEQDSKDSTYSLSSTLTLSKADYEKHKVYACEVTHQGLSSPVTKSFNRGEC
onset temperature for degradation [1]: around 63 °C
cytokine release ([2]; D2 and D4 time points): minimal cytokine release
T-cell activation by CD25 expression ([2]; cells stained at D4): minimal T-cell activation
binding to abTCR ([2]; cells stained at D4): binding to abTCR (with slightly different kinetics to deltaAB)
